# Experimental data reported in ChEMBL document CHEMBL4888484, “Replenishing the malaria drug discovery pipeline: Screening and hit evaluation of the MMV Hit Generation Library 1 (HGL1) against asexual blood stage Plasmodium falciparum ,using a nano luciferase reporter read-out” (2022).
# Hit rate of the full screen: of about 150,000 compounds, about 540 (0.36%) showed an effect of 50% or more. The list shows a part of the results.
# Tested on: Plasmodium falciparum
# Experiment: Primary screen in NF54 nanoGlo assay, in single point, at 2uM, 72h; a lower Z score goes with more inhibition
# Format: functional, Erythrocyte
# Conditions: timepoint 72 hour
SMILES,% Inhibition [%],Z score
COc1ccc(NC(=O)c2ccc(N[C@@H](C)C(=O)N3CCOCC3)cc2)cc1,-12,1.01
CCN(Cc1noc(CC(C)C)n1)C(=O)c1cccnc1OC,-2,0.31
Cc1nc(C2CC2)ncc1C(=O)NC[C@@H](c1ccco1)N1CCCC1,-20,2.44
C[C@H](N(C)C(=O)NC1CCC(O)CC1)C(C)(C)C (some centres undefined),-1,0.19
COc1ccc(NC(=O)c2ccc(-n3nc(C)c(-c4ccc(F)cc4)c3NC(C)=O)cc2)cc1,10,-1.17
CCN(C(=O)c1ccc2[nH]c3c(c2c1)CCCC3)[C@H]1CCS(=O)(=O)C1,-13,2.43
O=C(NCc1ccc(Cl)cc1)c1cccnc1O[C@H]1CCOC1,-3,0.64
COc1cc(OC)cc(C(=O)N[C@@H](c2cccnc2)c2cc(C)ccc2C)c1,4,-0.5
CN1CCC(O)(c2ccc3c(c2)CN(Cc2c(F)ccc(F)c2F)CCO3)CC1,-3,0.5
CC(C)(CO)[C@H](CNC(=O)c1cccc(OCc2cccs2)c1)c1ccccc1,-11,1.79
CCn1cc(CN2CCCCCC2)ccc1=O,-2,0.21
CCCn1ncc(C(=O)N2CC[C@H](c3sccc3C)[C@@H](O)C2)c1C,5,-0.68
CCC(CC)C(=O)NCc1ccc(Cl)cc1,-6,0.81
CCC(CC)(CC(=O)Nc1ccc(-n2ncn(C)c2=O)cc1)C(=O)O,-9,1.05
CC(C)n1ncc2c1CC(NC(=O)CCC1CCCO1)CC2 (centres undefined),-3,0.62
COc1cc([C@H]2C(=O)N(C3CCCCC3)CC(=O)N2Cc2ccco2)ccc1OC(C)C,-9,1.41
CCCc1cc(CNc2nc3ccccc3o2)on1,0,0
C[C@H]1CCCN(S(=O)(=O)NCCc2nnc3ccccn23)C1,-8,1.09
CC1CC(NC2CCS(=O)(=O)C2)CN(Cc2ccccc2)C1 (centres undefined),-6,0.82
Cc1nn(CC(=O)n2nc(C)c(Br)c2C)c(C)c1Cl,-28,3.31
O=C1NCCN1C(=O)NCc1cncc(-c2ccoc2)c1,-8,1.35

SMILES,% Inhibition [%],Z score
CCOc1ccc(CNC(=O)[C@H]2CCc3[nH]c(C)nc3C2)cc1Cl,0,0.02
CC1CCCC(C)C1NC(=O)c1ccc(C#N)[nH]1 (centres undefined),1,-0.13
COc1cccc(CN2CC3(CCN(C(=O)Cn4ccnc4)CC3)CC2=O)c1,-9,1.78
COc1ccccc1OCC(=O)Nc1cc(C)nn1-c1nc2c(c(=O)[nH]1)CCC2,1,-0.14
CC(C)OCC(=O)Nc1ccn(CCCn2ccnc2)n1,-7,1.24
O=C(Cc1ccsc1)N1CC[C@H](Oc2cc(N3CCCC3)ncn2)C1,4,-0.5
CC(C)O[C@H]1C[C@@H](NC(=O)NC2CCOCC2C)C1 (some centres undefined),0,0
O=C(CC1=Nc2ccccc2S(=O)(=O)N1)N1CCN(c2ccccc2F)CC1,1,-0.12
Cc1c(NC(=O)N(C)CCC[C@H]2CCCO2)cccc1N1CCCC1,5,-0.68
CCNc1nc(C)c(C(=O)N2CCC3(CC2)C(=O)N(C)c2ccccc23)s1,-5,0.91
COC(=O)[C@@H]1Cc2nc[nH]c2CN1Cc1c[nH]nc1-c1ccc(F)cc1,-12,1.66
Cc1cnc(C2CCN(c3ccc(S(N)(=O)=O)cc3C(=O)O)CC2)s1,-4,0.49
CC[C@H](NC(=O)Nc1cccc(Cl)c1OC)c1nccs1,-5,1.01
CCCC[C@H](CC)CNC(=O)c1ccc(Cl)cc1,-6,0.69
CC1CC(Nc2ncnc3cc(Br)ccc23)CCN1C (centres undefined),97,-8.72
CCCC(=O)N1CCN(c2cc(-n3cnc(C)c3C)ncn2)CC1,-12,1.96
Fc1ccccc1OC/C=C/CN1CCNCC1,-9,0.98
COc1ccccc1-c1noc(-c2cn(CC3(C)COC3)nn2)n1,-7,1.34
CCc1nc(C)c(-c2nccn2C2CCN(Cc3ccccc3)CC2)[nH]1,-1,0.13
CC[C@H](NC(=O)Cn1cnnn1)c1nccs1,-7,0.82
Cc1cccc(-c2nc3cc(Cl)ccc3cc2CN(CCCN2CCCC2=O)C(=O)c2csc(C)n2)c1,18,-2.24
